The values below come from PubChem BioAssay AID1347073 (National Center for Advancing Translational Sciences (NCATS), 2019).

Out of some 45,000 compounds screened, about 200 (0.44%) were called active. Roughly 7% stayed inconclusive and do not appear here. Calls follow the shape of the dose curve; as a rule, active = well fitted activation curve with a large enough effect; inconclusive = small, poorly fitted or top-dose-only effect; inactive = no such curve, though single readings can be large or run the other way. This is one part of the list.

The test in a line: qHTS of TDP-43 Inhibitors: NCGC Sytravon Library Screen. Also: 0% is about no effect; nearly all actives have a fitted effect of over 55% in size. Conditions: yeast TDP-43 toxicity rescue, BacTiter-Glo growth, 24 h; series mostly up to 46.1 µM; growth rescue (activation): at the top concentration. In short, it runs like this: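 TDP-43-expressing yeast, pregrown in raffinose, seeded at OD600 0.02 in galactose medium with compound for 24 hr at 30 deg C. Growth read by BacTiter-Glo luminescence, so rescue of toxicity appears as activation.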
Background: Quantitative high-throughput screening tests each substance at several concentrations.
In the case of `O=C(CCl)Nc1ccc2c(c1)OCO2`, the “growth rescue (activation)” value is inactive: 8.18%.

With `COc1cccc(Cn2c3ccc(NC(=O)CCc4ccc(F)cc4)cc3c(=O)n2C)c1`, the “growth rescue (activation)” value was inactive: 0.331%.

`COc1cc(NC(=O)CN2CCCCC2C)c(C)cc1[N+](=O)[O-]` (stereo not given): the “growth rescue (activation)” value is inactive: -18.7%.

Regarding `CC(C)(C)c1ccc(OCC(=O)NNC(=O)CCc2ccccc2)cc1`, the “growth rescue (activation)” value was inactive: 26.9%.

With `Cc1ccccc1N(C(=O)c1cccs1)c1nc2ccccc2s1`, the “growth rescue (activation)” value is inactive: -5.35%.

For `CC1(C)OC(=O)C(=NNc2ccc(Br)cc2)C(=O)O1`, the “growth rescue (activation)” value is inactive: 30.3%.

Turning to `O=S(=O)(NCCN1CCOCC1)c1cccs1`, the “growth rescue (activation)” value was inactive: 6.47%.

With `Cc1cccc(NCCC#N)c1`, the “growth rescue (activation)” value was inactive: 19.5%.

As for `C[n+]1ccn(CC(=O)c2ccc(Cl)cc2)c1`, the “growth rescue (activation)” value is inactive: 8.29%.

Regarding `O=C(NCCn1cccn1)c1ccc(OC2CCN(CCc3ccccc3)CC2)cc1`, the “growth rescue (activation)” value is inactive: 15.7%.

Regarding `CCOC(=O)C1(CCOc2ccccc2)CCN(Cc2ccncc2)CC1`, the “growth rescue (activation)” value is inactive: -9.05%.

As for `COC(=O)c1nn(-c2ccccc2)c(Cl)c1/C=N/OCc1ccc(Cl)cc1Cl`, the “growth rescue (activation)” value was inactive: 12%.

`CC(=O)c1cccc(NC(=O)CC2CCCC2)c1`: the “growth rescue (activation)” value is inactive: 5.58%.

For the compound `O=C(N/N=C/c1ccc(OCc2ccccc2)cc1)c1ccco1`, the “growth rescue (activation)” value was inactive: 25.6%.

For `O=C(Nc1ccc2c(c1)OCO2)C1CC(=O)N(c2ccc(F)cc2)C1` (stereo not given), the “growth rescue (activation)” value was inactive: 13.5%.

For the compound `Cc1oc2cc([N+](=O)[O-])c(O)c([N+](=O)[O-])c2c1C(=O)c1ccc(Br)cc1`, the “growth rescue (activation)” value is inactive: -38%.

Regarding `Nc1nc(NCc2ccco2)nc(Nc2ccccc2)c1[N+](=O)[O-]`, the “growth rescue (activation)” value is inactive: 19.3%.

For the compound `CCCCN(C)CCCNC(=O)c1cc(=O)[nH]c2ccc(S(=O)(=O)N3CCCCC3C)cc12` (stereo not given), the “growth rescue (activation)” value is inactive: -0.641%.

In the case of `Cc1ccc([N+](=O)[O-])cc1NC(=O)CN(C1CCCCC1)S(=O)(=O)c1ccc(Cl)cc1`, the “growth rescue (activation)” value is inactive: 20.4%.

`Cc1ccccc1C(=O)Nc1sc2c(c1C(=O)O)CCC2`: the “growth rescue (activation)” value is inactive: -10.2%.

Turning to `O=C(O)c1cc(NCc2ccccc2)ccc1N1CCOCC1`, the “growth rescue (activation)” value is inactive: 13.1%.

Take `O=C(NCc1n[nH]c(=S)n1-c1ccc(Cl)c(Cl)c1)c1ccc(S(=O)(=O)N2CCCCC2)cc1`: the “growth rescue (activation)” value is inactive: -2.76%.

Turning to `Cn1c(N)c(C(=O)COC(=O)CNC(=O)c2ccccc2)c(=O)n(C)c1=O`, the “growth rescue (activation)” value is inactive: -8.46%.

Consider `CCN(CC(=O)NC1CCS(=O)(=O)C1)S(=O)(=O)c1ccc(Br)cc1` (stereo not given), for which the “growth rescue (activation)” value was inactive: 2.54%.

Consider `CCN(CC)S(=O)(=O)c1cc(NC(=O)CNc2c(C)n(C)n(-c3ccccc3)c2=O)ccc1C`, for which the “growth rescue (activation)” value was inactive: -0.258%.

As to `COc1ccc(-c2cc(C(=O)NCC(c3ccccc3)N(C)C)c3ccccc3n2)cc1OC` (stereo not given), the “growth rescue (activation)” value is inactive: 3.74%.

In the case of `O=C(NCc1ccc(F)cc1)C(c1ccc(Cl)cc1)N(C(=O)c1csnn1)C1CC1` (stereo not given), the “growth rescue (activation)” value was inactive: 1.69%.

As to `O=C(Nc1nccs1)C1CCN(S(=O)(=O)c2ccccc2)CC1`, the “growth rescue (activation)” value was inactive: -6.19%.

Turning to `CCOC(=O)/C=C1/N(C)c2ccccc2C1(C)C`, the “growth rescue (activation)” value is inactive: 2.09%.

With `CC(=O)NCCCNS(=O)(=O)c1ccc(C)cc1`, the “growth rescue (activation)” value was inactive: 6.31%.
